Measurements reported in PubChem BioAssay AID651820 (National Center for Advancing Translational Sciences (NCATS), 2012).
Where “and” joins values, the source holds several entries; their conditions need not be identical. Equal values may be shown once. In all, about 340,000 compounds went through this assay and about 12,000 (3.5%) were called active. The inconclusive results got no clear call from the source; some entries with a clear call stand among them for comparison. The call rests on the fitted dose curve; in most records, active means well fitted inhibition curve with a large enough effect; inconclusive means small, poorly fitted or top-dose-only effect, or another doubt; inactive means no such curve, though single readings can be large or run the other way. Potencies beside an inconclusive call are fits to weak or partial responses and may not hold up.

assay: qHTS Assay for Inhibitors of Hepatitis C Virus (HCV); details: Huh7.5.1 HCVcc-Cre (HCVcc is cell-culture hepatitis C virus) infection, luciferase reporter, 44 h; activity change, negative = inhibition: at 41.8 µM (top of the series)
In short: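 HCVcc-Cre virus at an moi near 0.5 was added right after compound to cells cultured 4 h from seeding (1,000 cells/well). Luciferase activity was determined 44 h later, 15 min after substrate addition at RT.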
On the % scale 0 is the no-effect control and ±100 the full control effect; potency means the concentration at half of the fitted maximal effect; tags describe the fitted curve by direction and shape.

Q: Which Potency does the source give for Cc1ccc(C(C)C)c(OCC(=O)Nc2ccc(N3CCOCC3)cc2N2CCOCC2)c1 here?
A: active: 31.6 µM

Q: For O=C(NCc1ccc(F)cc1)C1CCN(S(=O)(=O)c2ccc3c(c2)OCCCO3)CC1, which Potency is on record?
A: inconclusive: 31.6 µM [inhibitor, single point]

Q: For O=C(c1ccc2c(=O)n3c(nc2c1)CCCCC3)N1CCN(C(c2ccccc2)c2ccccc2)CC1, which Potency is on record?
A: inconclusive: 25.1 µM [inhibitor, single point]

Q: For CCCOc1c(Br)cc(C(=O)OCC(=O)NC2CC2)cc1OC, which Potency is on record?
A: inconclusive: 31.6 µM [inhibitor, single point]

Q: With COc1ccc(C(=O)NNC(=O)C(Cc2ccc(O)cc2)NC(=O)c2ccccc2NC(=O)c2ccc(OC)cc2)cc1 (stereo not given) as the compound, how does the Potency read?
A: inconclusive: 31.6 µM [inhibitor, single point] and inconclusive: 2.51 µM [inhibitor, full curve]

Q: Which Potency does the source give for CC(=O)N1CCN(C(=O)c2ccc(-c3cccc(C(F)(F)F)c3)o2)CC1 here?
A: inconclusive: 5.62 µM [inhibitor, single point]

Q: With O=C(C[n+]1cc(Br)cc(Br)c1)c1ccc(-c2ccccc2)cc1 as the compound, how does the Potency read?
A: inactive

Q: With Cc1ccc([N+](=O)[O-])cc1NC(=S)NC(=O)c1ccco1 as the compound, how does the Potency read?
A: inconclusive: 5.62 µM [inhibitor, single point]

Q: Which Potency does the source give for CCCN(S(=O)(=O)c1ccc(OCC)cc1)S(=O)(=O)c1cccs1 here?
A: inconclusive: 31.6 µM [inhibitor, single point]

Q: Which Potency does the source give for O=C(NCCc1cnccn1)C1CCC(=O)N(Cc2ccc(Cl)cc2)C1 (stereo not given) here?
A: inactive

Q: With CSc1ccc(CN(C)C(=O)C2CCN(C(=O)Nc3ccccc3)CC2)cc1 as the compound, how does the Potency read?
A: active: 10 µM

Q: For CC1CCN(c2ccccc2NC(=O)c2ccc(C#N)cc2F)CC1, which Potency is on record?
A: active: 10 µM

Q: With O=C(NCc1ccco1)C1(S(=O)(=O)c2ccccc2)CC=CC1 as the compound, how does the Potency read?
A: inactive

Q: With CC1(C)Oc2ccc(NC(=O)C3COc4ccccc4O3)cc2O1 (stereo not given) as the compound, how does the Potency read?
A: inactive

Q: For Cc1c(OC(=O)c2ccc([N+](=O)[O-])cc2)c2c(c[n+]1C)COC(C)(C)OC2, which Potency is on record?
A: inactive

Q: With COc1ccc(-c2cc(C(F)F)n3ncc(C(=O)N4CCc5ccccc5C4)c3n2)cc1 as the compound, how does the Potency read?
A: inconclusive: 31.6 µM [inhibitor, single point]

Q: For Cc1ccsc1C1Nc2ccccc2-c2nc3ccccc3n21 (stereo not given), which Potency is on record?
A: inconclusive: 12.6 µM [inhibitor, partial curve]

Q: For COc1ccccc1N1CCN(C(=O)CCNS(=O)(=O)c2cc(Br)cnc2N)CC1, which Potency is on record?
A: inconclusive: 31.6 µM [inhibitor, single point]

Q: For O=C(COc1ccc(F)cc1)c1ccc2c(c1)CCCC2, which Potency is on record?
A: inactive

Q: With O=C(Nc1ncc(Cc2ccc(SC(F)F)cc2)s1)c1ccc(OC(F)F)cc1 as the compound, how does the Potency read?
A: inconclusive: 31.6 µM [inhibitor, partial curve]

Q: For CCN(CC)CCCNC(=O)c1cc2nc(-c3ccccc3)cc(C(F)(F)F)n2n1, which Potency is on record?
A: inconclusive: 8.91 µM [inhibitor, partial curve]

Q: Which Potency does the source give for Cc1ccc2nc(C)cc(C(=O)OCC(=O)Nc3cccnc3Cl)c2c1 here?
A: inactive

Q: For Cc1cc2cc(CN(Cc3ccco3)S(=O)(=O)c3c(C)ccc4nsnc34)c(=O)[nH]c2cc1C, which Potency is on record?
A: inconclusive: 2.24 µM [inhibitor, full curve]

Q: With CC(C)Nc1ncnc2ccc(Br)cc12 as the compound, how does the Potency read?
A: inconclusive: 11.2 µM [inhibitor, partial curve]

Q: For O=C(NCC(c1ccco1)N1CCc2ccccc2C1)c1ccccc1Cl (stereo not given), which Potency is on record?
A: inactive

Q: Which Potency does the source give for COc1cc(C(=O)Nc2sc3c(c2C(=O)NCc2ccco2)CCCC3)cc(OC)c1OC here?
A: inconclusive: 1.12 µM [inhibitor, full curve]

Q: Which Potency does the source give for Clc1ccc(-c2ccc(/C=N/Nc3cc(N4CCOCC4)nc(N4CCOCC4)n3)o2)cc1 here?
A: inconclusive: 5.62 µM [inhibitor, single point]

Q: Which Potency does the source give for CSc1nc2ccccc2cc1/C=C(\C#N)c1ccccc1 here?
A: inconclusive: 31.6 µM [inhibitor, single point]

Q: With O=S1(=O)N=C(Nc2ccc(S(=O)(=O)N3CCCCC3)cc2)c2ccccc21 as the compound, how does the Potency read?
A: inactive

Q: With Cc1oc(-c2ccc(Cl)cc2)nc1CS(=O)CC(=O)NCc1ccc2c(c1)OCO2 (stereo not given) as the compound, how does the Potency read?
A: inactive

Q: Which Potency does the source give for c1ccc2c(c1)CCCN2c1nc2ccccc2n2cnnc12 here?
A: inactive

Q: Which Potency does the source give for c1ccc(-c2nc(NCCCn3ccnc3)c3ccccc3n2)cc1 here?
A: inconclusive: 22.4 µM [inhibitor, single point]

Q: With Cc1ccc(-c2cc(C(=O)N(C)Cc3cnn(C)c3C)c3cc(Br)ccc3n2)cc1 as the compound, how does the Potency read?
A: inconclusive: 11.2 µM [inhibitor, single point]

Q: With CCCc1c(C)[nH]c2nc3ccccc3n2c1=O as the compound, how does the Potency read?
A: inconclusive: 12.6 µM [inhibitor, single point]

Q: For CCOC(=O)c1cnc(-n2nc(C)cc2C)nc1NC(C)c1ccccc1 (stereo not given), which Potency is on record?
A: inconclusive: 14.1 µM [inhibitor, single point]

Q: For CCCN1CCC(=NNC(=O)c2ccc(Br)o2)CC1, which Potency is on record?
A: inactive

Q: Which Potency does the source give for CN1CCN(S(=O)(=O)c2ccc(N3CCN(C(c4ccccc4)c4ccccc4)CC3)nc2)CC1 here?
A: inconclusive: 31.6 µM [inhibitor, single point]

Q: Which Potency does the source give for O=C(c1cc(COc2cccc3cnccc23)on1)N1CCC(c2ccccc2Cl)C1 (stereo not given) here?
A: inconclusive: 10 µM [inhibitor, partial curve]

Q: For C=CCn1c(SCC(=O)N2CCN(c3ccc(F)cc3)CC2)nnc1-c1ccco1, which Potency is on record?
A: inconclusive: 25.1 µM [inhibitor, single point]

Q: With COc1ccc(/C=C(\C#N)C(=O)NCCc2ccccc2)cc1OCc1ccccc1 as the compound, how does the Potency read?
A: inconclusive: 31.6 µM [inhibitor, single point]

Q: With Cc1cccc(C(=O)NC2C(=O)NNC2c2ccc(Cl)cc2)c1 (stereo not given) as the compound, how does the Potency read?
A: inactive

Q: With O=c1cc(-c2ccccc2)cc(-c2ccccc2)n1CCCO as the compound, how does the Potency read?
A: inconclusive: 31.6 µM [inhibitor, single point]

Q: With COc1ccc(CN(C)C(=O)Cn2cnc3c(NCc4ccccc4)ncnc32)cc1OC as the compound, how does the Potency read?
A: inconclusive: 8.91 µM [inhibitor, partial curve]

Q: For COc1ccc(C(=O)c2ccc(Br)cc2)c2ccccc12, which Potency is on record?
A: inconclusive: 14.1 µM [inhibitor, single point]

Q: With O=c1c2ccccc2c(C=Nc2cccc(S(=O)(=O)NCc3ccco3)c2)c(O)n1-c1ccc(Cl)cn1 as the compound, how does the Potency read?
A: inconclusive: 2.24 µM [inhibitor, partial curve]

Q: For CN(CC(O)COc1ccc2ccccc2c1)C1CCCCC1 (stereo not given), which Potency is on record?
A: inconclusive: 0.501 µM [inhibitor, full curve, poor fit]

Q: With Cc1cc(=O)[nH]c2n[nH]c(-c3ccccc3)c12 as the compound, how does the Potency read?
A: inactive

Q: Which Potency does the source give for O=[N+]([O-])c1cccc(Oc2cnccn2)c1 here?
A: inactive

Q: For CN(C)CCN(Cc1ccc(Cl)cc1)c1ccccn1, which Potency is on record?
A: inconclusive: 10 µM [inhibitor, partial curve, poor fit]

Q: What about the activity change, negative = inhibition of the same compound?
A: inactive: -13% [at 8.37 µM]

Q: For CC(=O)Nc1ccc(NC(=O)c2ccco2)cc1, which Potency is on record?
A: inactive

Q: With CCOC(=O)/C(N=Nc1c(Br)cc(Br)cc1Br)=C(\C)O as the compound, how does the Potency read?
A: inconclusive: 2.82 µM [inhibitor, full curve, poor fit]

Q: For O=C(CSc1nnc(-c2ccccc2Cl)o1)N1CCCC1, which Potency is on record?
A: inactive

Q: With Cc1c(C(=O)N/N=C/c2c(O)ccc3ccccc23)nnn1-c1nonc1N as the compound, how does the Potency read?
A: inconclusive: 31.6 µM [inhibitor, single point]

Q: For c1ccc(CCNc2ccnc3cc4ccccc4cc23)cc1, which Potency is on record?
A: active: 6.31 µM

Q: With CC(=O)Nc1ccc(N2CCOCC2)c(Cl)c1 as the compound, how does the Potency read?
A: inactive

Q: Which Potency does the source give for COc1ccc(C2c3ccc4ccccc4c3Oc3ncn(CCN(C)C)c(=N)c32)cc1 (stereo not given) here?
A: active: 2.82 µM

Q: For CCOC(=O)N1CCN(c2c(NCCc3ccc(OCC)c(OCC)c3)c(=O)c2=O)CC1, which Potency is on record?
A: inconclusive: 31.6 µM [inhibitor, single point]

Q: Which Potency does the source give for COC(=O)c1ccc2cc(OC)cc([N+](=O)[O-])c2n1 here?
A: inactive

Q: Which Potency does the source give for O=C(O)c1ccc2c(c1)C(=O)N(Cc1ccccc1)C2=O here?
A: inconclusive: 25.1 µM [inhibitor, single point]

Q: For CCCCCNCC(=O)Nc1cccc(C(=O)Nc2cccc(C(F)(F)F)c2)c1, which Potency is on record?
A: inconclusive: 7.94 µM [inhibitor, partial curve]

Q: Which Potency does the source give for C[C@@H]1CN([C@H](C)CO)C(=O)c2cc(NC(=O)Nc3ccc(C(F)(F)F)cc3)ccc2O[C@H]1CN(C)S(=O)(=O)c1ccc(Cl)cc1 here?
A: inconclusive: 15.8 µM [inhibitor, single point]

Q: Which Potency does the source give for COc1cc(OC)cc(C(=O)N2CCN(Cc3ccc4c(c3)OCO4)CC2)c1 here?
A: inactive

Q: With O=C(NCC1CC1)c1ccc(Oc2cc(Cl)cc(Cl)c2)o1 as the compound, how does the Potency read?
A: inconclusive: 12.6 µM [inhibitor, single point]

Q: For COc1ccc(S(=O)(=O)Nc2ccccc2N2CCOCC2)cc1[N+](=O)[O-], which Potency is on record?
A: inconclusive: 2.24 µM [inhibitor, single point]

Q: With CCOCCCn1c(=NC(C)=O)c(C#N)cc2c(=O)n3cccc(C)c3nc21 as the compound, how does the activity change, negative = inhibition read?
A: inconclusive: -54.4% [inhibitor]

Q: Which Potency does the source give for Cn1c(=O)c2c(nc(CN3CCN(c4cccc(Cl)c4)CC3)n2CCc2ccccc2)n(C)c1=O here?
A: inconclusive: 22.4 µM [inhibitor, single point]

Q: For COc1ccccc1NC(=O)COC(=O)CCn1c(C)csc1=O, which Potency is on record?
A: inconclusive: 31.6 µM [inhibitor, single point]

Q: With COc1ccc(-c2coc3cc(O)ccc3c2=O)cc1OC as the compound, how does the Potency read?
A: inconclusive: 5.62 µM [inhibitor, single point]

Q: With O=C1c2ccccc2S(=O)(=O)c2cc(N3CCN(C(=O)c4ccccc4)CC3)ccc21 as the compound, how does the Potency read?
A: inconclusive: 0.501 µM [inhibitor, partial curve, poor fit]
